Biological target: T1, 重组TEM8蛋白(义翘神州) (human, UniProt Q9H6X2 33-321, limits assumed)
T1 construct: also called TEM8重组蛋白; recombinant TEM8 protein (Sino Biological)
T1 sequence (looked up): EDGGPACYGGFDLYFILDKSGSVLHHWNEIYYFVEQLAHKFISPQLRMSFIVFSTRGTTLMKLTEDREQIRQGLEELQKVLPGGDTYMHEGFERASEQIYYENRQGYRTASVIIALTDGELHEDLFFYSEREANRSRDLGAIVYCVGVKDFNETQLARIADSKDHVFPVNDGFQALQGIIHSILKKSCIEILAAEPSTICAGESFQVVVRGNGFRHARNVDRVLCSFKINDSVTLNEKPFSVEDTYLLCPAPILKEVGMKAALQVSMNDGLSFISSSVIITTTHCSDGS
Assay: ELISA on plate-bound TEM8 protein, method as in Example 2

B1: HUT104-ADC (other)
heavy: EVQLQESGPGLVKPSETLSLTCTVTGDSISSDYWNWVRQAPGQRLEWMGYISYSGNTYTNPSLKSRITINRDTSKNQFSLQLNSVTPEDTAVYYCARYKTITSAFDVWGQGTTVTVSS[omitted - human IgG1 constant region]
light: EIVMTQSPATLSVSPGERATLSCRASQNIRDFLHWYQQKPGQAPRLLIYYASQSISGIPARFSGSGSGTDFTLTISSLEPEDFAVYYCQNGHSFPYTFGGGTKVEIKRTVAAPSVFIFPPSDEQLKSGTASVVCLLNNFYPREAKVQWKVDNALQSGNSQESVTEQDSKDSTYSLSSTLTLSKADYEKHKVYACEVTHQGLSSPVTKSFNRGEC
modifications: vcMMAE (VC linker + MMAE) joined through maleimide to the interchain cysteine thiols exposed by reduction; positions and number not stated
notes: also called TEM8抗体药物偶联物; HUT104-vcMMAE
EC50: 2.73 ng/mL

Source: patent publication CN110156894A (JIANGSU NUOMAIBO BIOMEDICAL TECH CO LTD, dated 2019)
